# Experimental data taken from the supplement of paper PMC11417369.
# Some of the results follow.
# Tested on: PfHDP1 homeodomain (GST-tagged)
# Experiment: gcPBM binding intensity (ln(normalized median fluorescence intensity)); higher = stronger DNA binding
# Summary of the method: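 Alexa488 anti-GST antibody, scanned at 488 nm, detected GST-tagged P. falciparum DNA-binding domains that had been expressed in E. coli and incubated for 1 h on an Agilent 4 × 180k array. The array carried primer-extended double-stranded 36-bp intergenic genomic probes and negative controls. Binding intensity is the highest Masliner-normalised natural-log median intensity across replicate spots of either orientation of each probe.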
row,Sequence,gcPBM binding intensity (ln)
1,CATTTTCATTTTAAGGTGCATTAATATTTATTTTAA [GTGCAC_site9437],9.69
2,TATATATATACATATTGTACATATTACATGCTATTA [XGTACX_site1184],7.48
3,TATATACTTTATAAATGTACATATAATGTATTATTT [XGTACX_site7313],6.52
4,CATCAAAATGCTACATGTACATATATATAATATATT [XGTACX_site5207],7.08
5,GAAATGAACAAGTGGGTGCGTATTAATTACATATTA,7
6,AATATATATAAATAAACACACACAAATATAATAAAA [CACACA_site9176],7.2
7,ATAGATAAATTTACGGGTACTAAAATGGAATATGAA [XGTACX_site8637],6.91
8,ATTCACATATTATCTTTACACACTATATATAAGTTT [CACACA_site8901],6.95
9,TATTTTACAATAACAATACACACTATAATATATATA [CACACA_site1391],6.81
10,TGTGTTCAGTATTGCACACACACAACCAAATAAAAA [CACACA_site379],10.4
11,TTAGTTATTATAATTTGTACACAAATGGTAAAGTAT [XGTACX_site2343],6.59
12,TTTGTACCGGCATTTTTTTTTTCTTTTTTTTTCCAA [XGTACX_negctrl_site323],6.19
13,TATTAAAAATGTTAAGTGCAAAAATAAAAATTGTGG [GTGCAC_site9854],8.21
14,AAAATTATATATTATAGTACATAAAATTTTGATATA [XGTACX_site994],6.27
15,TGTTAAAGAGAAAGTACTACACATATTATGTGTTTT [XGTACX_site1435],6.25
16,TTTTATAAACAGAGGGGTACGGGAAAAAAAAAAAAA [XGTACX_site1480],6.57
17,AGAAAAAAAAAACACACACACACACCGTCAATATAA [CACACA_site7895],6.81
18,TTAAAAAAAATTATTTGTACTTAAAAATTTTATATT [XGTACX_site8751],5.74
19,TATAAATTATATATTTGTACGTATATCACATATATA [XGTACX_site7053],6.31

row,Sequence,gcPBM binding intensity (ln)
1,TACATGAATATATAAAGAAAAAAAAAAAAACACACA [XGTACX_negctrl_site350],6.82
2,TTCTCATAATTAAATAGTACATATTTTAATAATCAC [XGTACX_site6116],6.42
3,TTTATTGAATAAAATGCACACGCATGCGTTATTTAT [CACACA_site9154],9.03
4,TATATGTTATATTTAACACACATATAAGGTACATAT [CACACA_site612],6.57
5,AATAAATAAAAATATATATATATAATATACATGTGT [TGCATGCA_negctrl_site369],6.67
6,GGATGTATTTATATGTGTATGTGTTTGGAAATATGT [XGTACX_negctrl_site99],7.02
7,TTTTATTTCAATCCACAAGGGATAAAATAAAGTTTT [CACACA_negctrl_site699],5.83
8,TTTTTAAAATTTTTAAAAATATTATGTTAAATATAT [CACACA_negctrl_site415],6.29
9,TATGTATGTTAGTGTGCACACATAAATATTATATAT [CACACA_site9121],11.1
10,ACATATGAAAAATATGCATGCAAATATTATTTAACA [TGCATGCA_site802],7.03
11,AAAAAAAAAAAAATCTCACACATAAAGAGATTATGA [CACACA_site4408],6.05
12,TTGAAAGAAAATAAAATAAAATAAAATAAAATAAAA [CACACA_negctrl_site859],6.29
13,ATATATATGTATTTATGTACATATTATTTTTCTTAA [XGTACX_site8169],6.25
14,AAAAAAAAAAAAAAATGTACATAAAAATGATATAAT [XGTACX_site4096],6.57
15,TATAAGAAAAATAACACACACATAAACATAAATACA [CACACA_site5536],7.08
16,TTCTAAACACATTGACAAATTAATATATTACAGCAA [GTGCAC_negctrl_site121],6.59
17,TTATAATTCTATTATCTGTTCTTTTTATATTTTTTT [CACACA_negctrl_site855],6.16
18,TTATTTTTCAATGAAAAGGATTATATATATATATAT [CACACA_negctrl_site757],9.21
19,ATTAAGTATATTTCTGCACACAAAAAAAAAAACCAA [CACACA_site9342],8.43

row,Sequence,gcPBM binding intensity (ln)
1,TATATATAGAAACACACACACATATATATATATATA [CACACA_site773],9.64
2,GTATATATATATAAAAGTACATGTTATGAAAAAAAA [XGTACX_site5410],6.91
3,TTTTTTCTCAAAAAAAAAACCTATGGTTATTAAGAT [XGTACX_negctrl_site534],6.11
4,TTAAGAATCTATACTAGTACATATATGTATACAAGC [XGTACX_site8025],6.46
5,TATATATATATGTGTAGTACAACAAATATGAAAAAT [XGTACX_site4059],8.82
6,TGTAGAACAAAAAATTGTACATATTTGTAAAAAAAA [XGTACX_site3850],6.43
7,ATTGTGTTAATAAAATGTACATTTTCTCTACTTTAA [XGTACX_site1199],6.76
8,ATTTATTTGTTTATTTGTTTATTTGTTTATTTGTTT [CACACA_negctrl_site1386],6.62
9,ATGAAAACCATGACGGGTACTCATTTATTATTTTAT [XGTACX_site6724],5.97
10,AATTTAATATAATGCACACATAAAAAAAAATTCAAA [CACACA_site2062],10.5
11,TGATGAAAATTTTTCTGTACAAAAAGTATGAAGGTA [XGTACX_site8901],7.13
12,CCTAATTTTATTAGGGTGCATTTTTAGTTAAATATA,7.68
13,ACAATATATAAAATATGTACATAATATATATAATGA [XGTACX_site8731],6.4
14,TAAGTTATATGTACTACACACGTACACAAAATAAGA [CACACA_site9237],7
15,ATCCACAAATTAACAAGTACATATATATATATATAT [XGTACX_site1267],9.38
16,AAAATAATAAAAAACTGTACGAATTAAAAATTAACA [XGTACX_site8454],6.24
17,TTGGATTTTTCCTATGAACACACGGGGTTACAATTA [CACACA_site449],6.13
18,TCCAATAATTTATAAAAAAAAAAAGGGAAAATGTAT [TGCATGCA_negctrl_site492],6.39
